Each block holds one binder with its values, some of them ahead of it.
How the values were obtained:
CD25 = target: T1, CD25 (Homo sapiens (Human), UniProt P01589 22-240); assay: ELISA, plate-bound CD25
T1 construct: also called IL-2R alpha chain
T1 sequence: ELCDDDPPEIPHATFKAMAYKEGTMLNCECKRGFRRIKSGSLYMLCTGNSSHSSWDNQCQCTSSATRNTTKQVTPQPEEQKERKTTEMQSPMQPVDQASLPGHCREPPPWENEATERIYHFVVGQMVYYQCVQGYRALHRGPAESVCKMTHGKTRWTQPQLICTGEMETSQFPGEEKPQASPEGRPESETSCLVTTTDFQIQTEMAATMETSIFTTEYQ
Method: An immunosorbent plate was coated with CD25 at a concentration of 0.5 μg/mL in PBS pH 7.4, 75 ul/well, and incubated overnight at 4° C. Wells were washed with PBS pH 7.4 containing 0.05% Tween-20 (wash buffer) three times, and then blocked with 200 ul/well 1% BSA in PBS pH 7.4 (block buffer) for two hours at room temperature. After three washes with wash buffer IL-2M molecules of Example 12 were diluted to eleven—two fold serial dilution in PBS containing 1% BSA and 0.05% Tween-20 (assay buffer) with 2 nM being the highest concentration. The diluted material was added to the CD25 coated plate at 75 ul/well for 1 hour at room temperature. After three washes with wash buffer, a goat biotinylated anti-IL-2 polyclonal antibody, diluted to 0.05 μg/mL in assay buffer, was added to the plate at 75 ul/well for 1 hr at room temperature. After three washes with wash buffer high sensitivity streptavidin HRP diluted in assay buffer at 1:5000 was added to the plate at 75 ul/well for 15 minutes at room temperature. After three washes with wash buffer and 1 wash with wash buffer (with no tween-20), the assay was developed with TMB, and stopped with 1N HCL. OD 450 nm was measured. The experiment included appropriate controls for non-specific binding of IL-2M molecules to the plate/block in the absence of CD25 and a negative control molecule that is unable to bind CD25.

[1] = target: T2, mouse MAdCAM expressed on cells (mouse, UniProt Q61826 22-405); assay: cell binding
T2 construct: whole, on cells
T2 sequence (looked up): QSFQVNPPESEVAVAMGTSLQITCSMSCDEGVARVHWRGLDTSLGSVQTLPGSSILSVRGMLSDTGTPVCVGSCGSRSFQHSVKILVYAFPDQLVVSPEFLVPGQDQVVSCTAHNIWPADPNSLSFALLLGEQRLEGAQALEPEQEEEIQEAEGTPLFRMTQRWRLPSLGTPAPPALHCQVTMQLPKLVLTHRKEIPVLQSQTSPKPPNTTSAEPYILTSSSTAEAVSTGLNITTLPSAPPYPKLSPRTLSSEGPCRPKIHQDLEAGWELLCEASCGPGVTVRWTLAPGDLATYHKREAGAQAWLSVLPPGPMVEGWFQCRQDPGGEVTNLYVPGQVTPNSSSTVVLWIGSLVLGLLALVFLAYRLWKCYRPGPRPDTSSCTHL

[2] = target: T3, human MAdCAM expressed on cells (human, UniProt Q13477 19-382); assay: cell binding
T3 construct: whole, on cells; also called MADCAM1
T3 sequence (looked up): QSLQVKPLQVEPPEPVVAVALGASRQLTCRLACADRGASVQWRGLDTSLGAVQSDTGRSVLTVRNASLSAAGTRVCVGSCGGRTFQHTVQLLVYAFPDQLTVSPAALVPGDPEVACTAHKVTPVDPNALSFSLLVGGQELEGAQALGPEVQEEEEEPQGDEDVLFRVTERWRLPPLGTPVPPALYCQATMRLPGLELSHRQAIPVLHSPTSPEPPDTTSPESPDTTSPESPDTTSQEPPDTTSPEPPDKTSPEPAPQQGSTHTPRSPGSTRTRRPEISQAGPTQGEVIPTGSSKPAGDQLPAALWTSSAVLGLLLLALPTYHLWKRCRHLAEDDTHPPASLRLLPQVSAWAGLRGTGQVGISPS

human MAdCAM protein = target: T4, human MAdCAM protein (human, UniProt Q13477 19-317); assay: Octet
T4 construct: used for Octet, SPR, ELISA and plate capture; construct not described; also called recombinant human MAdCAM; soluble monomeric human MAdCAM
T4 sequence (looked up): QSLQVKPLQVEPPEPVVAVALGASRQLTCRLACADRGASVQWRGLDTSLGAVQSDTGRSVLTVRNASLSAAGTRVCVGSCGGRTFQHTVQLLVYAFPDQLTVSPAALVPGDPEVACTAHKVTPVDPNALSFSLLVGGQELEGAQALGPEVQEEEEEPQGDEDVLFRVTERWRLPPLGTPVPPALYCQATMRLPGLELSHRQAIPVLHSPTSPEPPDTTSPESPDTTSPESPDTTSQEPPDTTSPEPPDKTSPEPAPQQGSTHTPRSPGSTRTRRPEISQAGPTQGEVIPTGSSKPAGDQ

- EC50 (CD25): < 1 nM
B1: human IL-2M fused C-terminally to human IgG1 Fc domain (SEQ ID NO: 58) (Fc fusion)
chain: [human IgG1 Fc with changes cut from this listing]GGGSAPTSSSTKKTQLQLEHLLLDLQMILNGINNYKNPKLTRMLTFKFYMPKKATELKHLQCLEEELKPLEEALNLAPSKNFHLRPRDLISDINVIVLELKGSETTFMCEYADETATIVEFLNRWITFAQSIISTLT
notes: also called Fc-G4S-IL-2 N88D V69A, Q74P

- binding result [1]: binds
- binding result [2]: binds
- binding result (human MAdCAM protein): binds
B2: MAdCAM antibody Clone ID 62 of Table 6 (scFv) (scFv)
scFv: QVQLVQSGAEVKKPGSSVKVSCKASGGTFSSYAISWVRQAPGQGLEWMGWMEPHTGNTRYAQKFQGRVTITADESTSTAYMELSSLRSEDTAVYYCAKGGFSWFDPWGQGTLVTVSSGGGGSGGGGSGGGGSGGGG[about 100 residues cut from this listing]FGQGTRLEIK
